Assay results: PubChem BioAssay AID686978 (National Center for Advancing Translational Sciences (NCATS), 2013)
“And” between values parts separate entries of the source, which are not always exact repeats. Equal values may be shown once. Among all 420,000 compounds or so, about 64,000 (15%) were called active. The inconclusive results got no clear call from the source; some entries with a clear call stand among them for comparison. Calls come from the whole dose curve; as a rule, active = well fitted inhibition curve with a large enough effect; inconclusive = small, poorly fitted or top-dose-only effect; inactive = flat fitted curve, though single readings scatter. Where the call is inconclusive, the potency comes from a doubtful curve fit.

Test: qHTS for Inhibitors of human tyrosyl-DNA phosphodiesterase 1 (TDP1): qHTS in cells in absence of CPT; note: nearly all actives have a fitted effect of over 55% in size
Conditions: DT40 Tdp1-/- hTDP1 cells, no CPT, ATP luminescence, 48 h; activity change, negative = growth inhibition: at 46.2 µM (top of the series) unless noted
Method in brief: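 A cellular qHTS used chicken DT40 cells lacking endogenous Tdp1 but carrying stably transfected human TDP1. Compounds were applied without camptothecin, and cell growth kinetics were judged by ATP-dependent luminescence after ≥48 hr.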
% is set by controls: 0 for no effect and ±100 for the full control effect; potency is the fitted concentration of half-maximal effect; tags give direction and shape of the fitted curve.

Structure (SMILES) | Potency | activity change, negative = growth inhibition
Cc1ccc(S(=O)(=O)CC(=O)Nc2ccc3nc(C)sc3c2)cc1 | inactive | –
CC(C)(C)c1cc(CN2CCN(CCC#N)CC2)cc(C(C)(C)C)c1O | inconclusive: 29.1 µM [inhibitor, single point] | –
COc1cc(OC)nc(NC(=O)CCl)n1 | inconclusive: 20.6 µM [inhibitor, single point] | –
CCOC(=O)c1c(NC(=O)CCl)sc(CN(C)C)c1-c1ccccc1 | active: 9.2 µM | –
CCc1sc(Nc2cccc(Cl)c2)nc1-c1cc2cccc(OC)c2oc1=O | active: 16.4 µM | –
O=C(Nc1ccc(Cl)cc1C(=O)Nc1ccncc1)c1ccco1 | inconclusive: 29.1 µM [inhibitor, single point] | –
Cc1ccc(-c2nn(C)c(=O)c3ccccc23)cc1CNC(=O)CSc1nc2ccccc2o1 | inconclusive: 29.1 µM [inhibitor, single point] | –
CC(=O)Nc1sc(N/N=C\c2ccc(O)cc2)nc1-c1cccs1 | inconclusive: 11.6 µM [inhibitor, partial curve] | –
O=C(CCN1CCN(c2ccc(F)cc2)CC1)Nc1ccc(F)cc1 | inconclusive: 23.1 µM [inhibitor, partial curve] | –
CC(C)N1CCN(C(=O)c2cnn(-c3nccc(-c4ccc5c(c4)OCO5)n3)c2-c2ccco2)CC1 | inconclusive: 18.4 µM [inhibitor, single point] | –
COc1ccc(NC(=O)CN2C(=O)C(C)(C)c3cc(S(=O)(=O)N4CCCCC4)ccc32)cc1Cl | inconclusive: 25.9 µM [inhibitor, single point] | –
CS(=O)(=O)c1ccc(-c2nnn(CC(=O)N3CCCCC3)n2)cc1 | inactive | –
CCOC(=O)c1c(-c2ccccc2)csc1NC(=O)C1CCCO1 (stereo unspecified) | inconclusive: 23.1 µM [inhibitor, single point] | –
Cc1ccc(S(=O)(=O)CCC(=O)Nc2ccc(Br)cc2)cc1 | inactive | –
Cc1ccc2c(=O)n3c(nc2c1)C(Cc1ccc(O)cc1)NC(=O)c1cccnc1-3 (stereo unspecified) | inconclusive: 23.1 µM [inhibitor, partial curve] | –
C[C@H]1CN(C2CCCCC2)C(=O)[C@@H]1CC(=O)NCc1ccccc1 | inconclusive: 10 µM [inhibitor, partial curve] | –
Cc1nn(Cc2ccccc2)c(C)c1NC(=O)c1cc(-c2ccco2)on1 | inconclusive: 20.6 µM [inhibitor, single point] | –
COc1ccc(C2NC(=O)NC3=C2CCc2ccccc23)cc1 (stereo unspecified) | inconclusive: 18.4 µM [inhibitor, single point] | –
C[C@H](CO)N1C[C@H](C)[C@H](CN(C)C(=O)Nc2ccc(F)cc2)Oc2c(NC(=O)c3ccc(-c4nccs4)cc3)cccc2C1=O | inconclusive: 29.1 µM [inhibitor, single point] | –
COc1ccc(-n2c(SCC(=O)C(C)(C)C)nc3c(sc(=S)n3-c3ccccc3)c2=O)c(OC)c1 | active: 11.6 µM | –
Cc1cc(S(=O)(=O)N2CCN=C2c2ccccc2)ccc1F | inactive | –
O=C(N/N=C/c1ccc(Br)s1)c1ccccc1[N+](=O)[O-] | inactive | –
COc1ccc(NC(=O)CCN2C(=O)c3ccccc3S2(=O)=O)c(OC)c1 | inactive | –
COc1ccc(NC(=O)CC(C)n2ccnc2)cc1 (stereo unspecified) | inactive | –

Structure (SMILES) | Potency | activity change, negative = growth inhibition
CCN(CCNC(=O)CCCn1nc(C)n2c(cc3sccc32)c1=O)c1ccccc1 | active: 23.1 µM | –
CCOC(=O)[C@]12CCC=C1N(Cc1ccccc1)C(=O)[C@H](CC(=O)N1CCCC1)C2 | inactive | –
CC(=O)C1=C(C)NC(SCSc2ccccc2)=C(C#N)C1c1cccnc1 (stereo unspecified) | inconclusive: 29.1 µM [inhibitor, single point] | –
Cc1ccc(S(=O)(=O)C(CNC(=O)COc2ccccc2)c2cccs2)cc1 (stereo unspecified) | inconclusive: 18.4 µM [inhibitor, single point] | –
COC(=O)c1cc(C(=O)OCC(=O)Nc2cc(C)on2)cc([N+](=O)[O-])c1 | inactive | –
C[C@@H]1C(=O)CC2C(C)(C)CCC[C@]2(C)[C@@]1(O)CCc1ccoc1 (stereo partly specified) | – | inactive: -10.3% [at 9.04 µM]
CCOCC(=O)Nc1c(C(=O)Nc2ccc3c(c2)OCCO3)oc2ccccc12 | active: 8.2 µM | –
O=[N+]([O-])c1ccc(NN=Cc2ccc3c(c2)OCO3)nc1 | inconclusive: 29.1 µM [inhibitor, single point] | –
COc1ccc(-c2nc(CSCC(=O)NCCC3=CCCCC3)c(C)o2)cc1OC | inconclusive: 16.4 µM [inhibitor, single point] | –
COc1cccc(-n2c(SCC(=O)c3ccccc3)nc3c([nH]c4ccccc43)c2=O)c1 | inconclusive: 18.4 µM [inhibitor, single point] | –
N=C(N)c1ccc(/C=C/c2ccc(C(=N)N)cc2O)cc1 | inconclusive: 25.1 µM [inhibitor, single point] and inconclusive: 33.5 µM [inhibitor, partial curve, poor fit] and inconclusive: 20.6 µM [inhibitor, single point] | –
CCCn1c(COc2cccc(C)c2)nc2ccccc21 | active: 20.6 µM | –
CCN(CC)S(=O)(=O)c1cccc(NC(=O)COC(=O)/C=C/c2cccs2)c1 | inconclusive: 16.4 µM [inhibitor, single point] | –
Cc1ccc(C(=O)CCNc2ccc(Br)cc2)o1 | active: 12.6 µM | –
Cc1cccn2c(=O)c3cc(C(=O)NCCC4=CCCCC4)n(C)c3nc12 | inconclusive: 29.1 µM [inhibitor, single point] | –
CSc1nnc(NC(=O)c2ccc3c(c2)OCO3)s1 | inactive | –
COC(=O)C1=C(C)NC(=O)NC1c1cn(-c2ccccc2)nc1-c1ccc(OC)c(Br)c1 (stereo unspecified) | inconclusive: 16.4 µM [inhibitor, partial curve] | –
CCCc1cc(=O)[nH]c2nnc(SCC(=O)Nc3cc(C)on3)n12 | – | inconclusive: -6.15% [inhibitor]
Cc1cccc(NC(=O)C2CCN(c3nc(C)cc(C)n3)CC2)c1 | inconclusive: 13 µM [inhibitor, partial curve] | –
Cc1ccc(C)c(Nc2nnc(-c3ccc(C)c(S(=O)(=O)N4CCN(C)CC4)c3)c3ccccc23)c1 | active: 23.1 µM | –
CCc1ccc(NC(=O)C(=O)NCCc2csc(-c3cccc(F)c3)n2)cc1 | inactive | –
CCOC(=O)c1ccc(S(=O)(=O)N2CCN(C(C)=O)CC2)cc1 | inactive | –
COc1cccc(NC(=O)N2CCCC2C(=O)NC23CC4CC(CC(C4)C2)C3)c1 (stereo unspecified) | inactive | –
Cc1cc(C)nc(-c2cccc3c2OC(CNC(=O)c2ccc(Cn4nc(C)cc4C)cc2)C3)n1 (stereo unspecified) | inactive | –

Structure (SMILES) | Potency | activity change, negative = growth inhibition
Cc1cc(C)c(S(=O)(=O)NCCSCc2ccco2)c(C)c1 | inconclusive: 20.6 µM [inhibitor, single point] | –
C1CNC(C23CC4CC(CC(C4)C2)C3)=N1 | inactive | –
COc1ccc(Cc2nnc(SCC(=O)c3c(N)n(C4CC4)c(=O)[nH]c3=O)o2)cc1 | inactive | –
O=C1N/C(=N\N=C\c2ccc3ncccc3c2)SC1Cc1ccc(SC(F)F)cc1 (stereo unspecified) | inactive | –
CSc1ccccc1NC(=O)c1c(C)noc1C | inactive | –
C=CCC1(C#N)C(=S)NC2=C(C(=O)CC(C)(C)C2)C1c1ccc(Br)cc1 (stereo unspecified) | – | inconclusive: -36.8% [inhibitor]
CCn1nc(C)c2c(-c3ccccc3)cc(=O)n(C(C)C(=O)Nc3cccc(F)c3)c21 (stereo unspecified) | inconclusive: 29.1 µM [inhibitor, partial curve, poor fit] | –
CCOc1ccc(NC(=O)CSc2oc(-c3cccs3)nc2S(=O)(=O)c2ccc(C)cc2)cc1 | active: 3.26 µM | –
COC(=O)/C=C/c1cc(F)ccc1S(=O)(=O)NC(C)(C)C | inconclusive: 35.5 µM [inhibitor, single point] | –
FC(F)(F)c1ccccc1NC(=S)Nc1cccc(Cl)c1 | inconclusive: 23.1 µM [inhibitor, single point] | –
CCOC(=O)CSc1nnc(COc2ccc3ccccc3c2)o1 | inconclusive: 23.1 µM [inhibitor, single point] | –
CN(C)CCCNC(=O)C[C@H]1C[C@H](C(=O)N2CCCCC2)[C@@]2(CCc3ccccc3)c3[nH]c4ccc(Cl)cc4c3CCN2C1=O | inactive | –
O=C(O)c1ccc(N=Cc2c(O)ccc3oc4c(c23)CCCC4)cc1 | inconclusive: 25.9 µM [inhibitor, single point] | –
COc1cc2c(cc1OC)[C@@H](Cc1cc(OC)c(OC)c(OC)c1)[N+](C)(CCCOC(=O)CC/C=C/CCC(=O)OCCC[N+]1(C)CCc3cc(OC)c(OC)cc3[C@H]1Cc1cc(OC)c(OC)c(OC)c1)CC2 (stereo partly specified) | inactive | –
Cc1onc(-c2ccccc2Cl)c1C(=O)NCCCc1ccccc1 | inconclusive: 29.1 µM [inhibitor, single point] | –
Cc1ccc(C2=CC(c3ccccc3C)n3c(nc4ccccc43)N2)cc1 (stereo unspecified) | inconclusive: 29.1 µM [inhibitor, single point] | –
COc1cc(/C=C/C(=O)NC2CCCCC2)cc(OC)c1OC | inactive | –
CCOC(=O)C1CCN(Cc2cc(C(C)C)c(O)c(C(C)C)c2)CC1 | active: 9.2 µM | –
O=C(O)c1sccc1Oc1ccc(NS(=O)(=O)c2ccccc2)cc1 | inactive | –
CCCCCCCN1C(Nc2ccccc2)=NC[C@@H]1CC(C)C | active: 16.4 µM | –
COc1cc(/C=C2\NC(=S)N(C)C2=O)ccc1OCc1ccccc1F | inactive | –
N#CC1=C(N)Oc2cc(N)ccc2C1c1cccc(F)c1 (stereo unspecified) | inconclusive: 23.1 µM [inhibitor, single point] | –
O=C(CN1CCN(Cc2ccccc2)CC1)N/N=C/c1ccc(Br)s1 | inconclusive: 29.1 µM [inhibitor, single point] | –
